# Laboratory results from the supplement of paper PMC11417369.
# Some of the results follow.
# Test system: PF3D7_0420300 AP2 domain 1 (GST-tagged)
# Experiment: gcPBM binding intensity (ln(normalized median fluorescence intensity)); higher = stronger DNA binding
# In short: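 The binding buffer was 1× PBS containing 1% milk, 0.2 mg/ml BSA, 0.5% salmon testes DNA and 0.03% Triton X-100. In it, GST-tagged P. falciparum DNA-binding domains expressed in E. coli were applied for 1 h to an Agilent 4 × 180k array of primer-extended double-stranded 36-bp intergenic genomic probes plus negative controls. Binding intensity, read with Alexa488 anti-GST antibody and a 488 nm scan, is the highest Masliner-normalised natural-log median intensity across replicate spots of either probe orientation.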
row,Sequence,gcPBM binding intensity (ln)
1,ACAGAAAAAAGACACACACACATAATATACATACAT [CACACA_site6991],10.2
2,ATTTTTTAAATGAGGCGTACACAAAAATATAATTAC [XGTACX_site7087],9.46
3,TATATATATATATATACACACACACTAATAAAAAAA [CACACA_site8426],10
4,CTTAGATATAAAAATTGTACATACATATTTTTGACA [XGTACX_site2107],9.05
5,TTTTTTTCGTAAAAAAAAATAATTATTAAATGAAGG [TGCATGCA_negctrl_site212],8.66
6,GTAAATATTAATAAAAGTACATATGTAGCATATGGA [XGTACX_site5219],9.33
7,CCTTTTTTATTTACAACACACGTAAAGGTTCAAATA [CACACA_site1741],9.24
8,ATATATATATATATGTGTACATATTTTTTTTTTTTT [XGTACX_site3425],9.15
9,AGAAAAAAAAAAAATGCACACATTTTCATTGTCAGT [CACACA_site1935],9.28
10,AAAAAACACAGACATACACACAAAAAGGTTATAAAT [CACACA_site4222],10.1
11,TTAAACATATATTAAGCACACACAAACAAAAAAACA [CACACA_site8816],9.9
12,AACATATTTTTTTGTTGTACTTACAATTATAAGCAT [XGTACX_site3056],9.21
13,TATACCAAATATATGGGTACACAAATATGTTTATTC [XGTACX_site8932],9.24
14,TAATTAATCGATTTACGCACATGAACAAAAGCACAT [CACACA_negctrl_site1287],9.39
15,TATAAAGCAACTGAAACACACAAATTTTTTTTTTTT [CACACA_site3218],9.31
16,ACTATTTTCTTCAAAACATGCACCACATAAACATAA [TGCATGCA_site200],9.18
17,ATTATTTATTTATGTGTGCGCATGTGTGTAAATATT,9.93
18,TTAAAATTAAAAATAGGTACACATATGAACAAGGAC [XGTACX_site1180],9.81
19,TTATATGATATATGACGTACATATTAATAACATCTA [XGTACX_site6716],9.14

row,Sequence,gcPBM binding intensity (ln)
1,TGTAATATTTTATAAAGTACATTATAATATAATTCA [XGTACX_site2961],9
2,TTTTTTTCTATAATACACCAGAAAAAAAAATTAAAA [TGCATGCA_negctrl_site257],8.66
3,TTGTTCCAATAAAATCGTACAATTAAACAACCAAAC [XGTACX_site5759],9.45
4,CAATCAACAAAACATACACACACATATATATATATA [CACACA_site8979],9.74
5,AGATTGAAATATAGTTGTACAAATATTTTAAAACAT [XGTACX_site3026],9.25
6,CATATCTCTTATTAATGTACATTTTTAAAAGTAAAT [XGTACX_site2847],8.98
7,CTTTTTTTTATGAACAGTACAGAAATATATATATAC [XGTACX_site5613],9.11
8,TTTATATAATGGAAAAGTACTCAGGAAATTTATACA [XGTACX_site3635],9.16
9,CAAGAACAAAAAATATGTACATATAATTATATATAT [XGTACX_site2082],9.47
10,TATCCTACATTAACAAGTACAAAGAGATCCTACGTA [XGTACX_site4252],9.03
11,AAGAATATATAGGACACACATACAATAATAAATATA [CACACA_site4119],9.74
12,AACGCCACTTCAATGGCACACACCAATTATTTTTCA [CACACA_site1026],9.35
13,TTTCTCCATATTAAAGTGCATTAATAACAAAAATAA [GTGCAC_site9934],8.87
14,AAAAAAAAAAAAAATATACACACTAATATATTTTTT [CACACA_site815],9.33
15,ATATATATATTAATTACACACAAAAAAAAAAAAAAA [CACACA_site1165],9.51
16,TCATTCGAATAAATTGCACACATGACATCCGTTGTA [CACACA_site2587],9.37
17,TATATACAGATATATACACACATATTTATATTTTAT [CACACA_site7734],9.48
18,GTATAGAGAAAAAACTGTACTTTATATAAATATTTA [XGTACX_site3972],9.06
19,TATTAATAATATAATAGTACTTTCACTGTAAATTTA [XGTACX_site6419],9.08

row,Sequence,gcPBM binding intensity (ln)
1,TAATTTATAAATAATTGTACATAGTTTATTTAGATT [XGTACX_site4599],9.09
2,TAATTATAAAAATAAAACAACCAAATTTGTTATATA [CACACA_negctrl_site750],9.19
3,ATATATATAAAATAAAGTACCCGTAAAACCTATATG [XGTACX_site6937],9.54
4,AAAAAAAAAAAAAAAAAATAATAAAAAATAAAAAAA [GTGCAC_negctrl_site341],9.18
5,TATGTTAATCCTATTTGTACATATAATCGAATTAAA [XGTACX_site7090],8.88
6,GACGACTATATTAATTGTACTCAATTTAAGCATAAT [XGTACX_site2750],9.16
7,GAAAGGAAAAGTTGAACACACAAAGTAAACTATAAG [CACACA_site3535],9.54
8,ATATATAATAATATATGTACATAATATTTTTTTTTT [XGTACX_site1941],8.99
9,TAATGAAGATATATAACACACAAAAGTTATAAATAT [CACACA_site6678],9.61
10,GCCATTAATTTATACACACACATTAAAATTTTTTAT [CACACA_site4575],9.78
11,GCTATAAATACAGACGCACACATATACATACATATA [CACACA_site3329],9.59
12,TACAAAATAGTTTACACACACATATATATACATATA [CACACA_site2615],9.82
13,TTTATTTTTATGGTCACACATATTTTTAAAACTATA [CACACA_site4372],9.29
14,TTTTTTTTTTTATATACTGGAAATATATTTAATTTA [GTGCAC_negctrl_site250],9.01
15,CACCCATAGAAACACACACACGCATAAAAAAAAAAA [CACACA_site1513],9.71
16,TAAAAACAAAAATGCACACATAATAAGCATATGTAT [CACACA_site3469],9.55
17,TATTCTAATATTTATACACACATAACTTTGATAAAT [CACACA_site6418],9.42
18,ATTAATTATTGTAATTGTACATTTTATATATATCCA [XGTACX_site2105],9.26
